These results are taken from the supplement of paper PMC8047034.

Assay [1] relates to OVCAR4. The assay can be described thus: log2 surviving fraction (library drug vs vehicle, or drug + carboplatin vs carboplatin alone; relative to plate median); ovarian cancer lines: OVCAR4 is platinum-sensitive and Ov4Carbo platinum-resistant; higher = more cell survival. The following applies: library drug concentration 10 µM, 7 days.
The test system of assay [2] is Ov4Carbo. The description is as above. Particulars: library drug concentration 10 µM, 7 days.

Structures can show the parent of a compound that is named as a salt. The list shows a part of the results. Single values are uncertain, as repeats are few or missing.

`C[C@H]1C[C@@H]2[C@H]([C@@H](O)C[C@@]3(C)[C@H]2CC[C@]3(O)C(=O)CO)[C@@]2(C)C=CC(=O)C=C12` [Methylprednisolone]: the log2 surviving fraction in assay [1] (carboplatin co-treatment 0 µM) stood at 0.515; in assay [1] (carboplatin co-treatment 5 µM), 0.32; in assay [2] (carboplatin co-treatment 0 µM), 0.548; in assay [2] (carboplatin co-treatment 5 µM) it was 1.14.

On to `CCC(=O)O[C@]1(C(=O)CCl)[C@@H](C)C[C@H]2[C@@H]3C[C@H](F)C4=CC(=O)C=C[C@]4(C)[C@@]3(F)[C@@H](O)C[C@@]21C` [Halobetasol Propionate], for which the log2 surviving fraction was -1.11 in assay [1] (carboplatin co-treatment 0 µM), -1.41 in assay [1] (carboplatin co-treatment 5 µM), -0.322 in assay [2] (carboplatin co-treatment 0 µM) and -0.341 in assay [2] (carboplatin co-treatment 5 µM).

Turning to `Nc1c2ccccc2nc2ccccc12` [9-Aminoacridine], the log2 surviving fraction in assay [1] (carboplatin co-treatment 0 µM) was -9.4; in assay [1] (carboplatin co-treatment 5 µM), -7.49; in assay [2] (carboplatin co-treatment 0 µM) it was -8.12; in assay [2] (carboplatin co-treatment 5 µM), -7.7.

For `CCCC(=O)Nc1ccc(OCC(O)CNC(C)C)c(C(C)=O)c1` (centres undefined) [Acebutolol HCl], the log2 surviving fraction worked out at 0.638 in assay [1] (carboplatin co-treatment 0 µM), 0.297 in assay [1] (carboplatin co-treatment 5 µM), 1.06 in assay [2] (carboplatin co-treatment 0 µM) and 1.41 in assay [2] (carboplatin co-treatment 5 µM).

In the case of `Cc1ccc2c(Cl)cc(Cl)c(O)c2n1` [Chlorquinaldol], the log2 surviving fraction in assay [1] (carboplatin co-treatment 0 µM) is -6.94; in assay [1] (carboplatin co-treatment 5 µM), -6.21; in assay [2] (carboplatin co-treatment 0 µM), -6.54; in assay [2] (carboplatin co-treatment 5 µM), -6.59.

Regarding `COc1cc(OC)c(C(=O)CCCN2CCCC2)c(OC)c1` [Buflomedil HCl], the log2 surviving fraction in assay [1] (carboplatin co-treatment 0 µM) was -0.216; in assay [1] (carboplatin co-treatment 5 µM), 0.379; in assay [2] (carboplatin co-treatment 0 µM), 0.0152; in assay [2] (carboplatin co-treatment 5 µM), 0.217.

In the case of `Cc1cc(C(C)(C)C)cc(C)c1CC1=NCCN1` [Xylometazoline HCl], the log2 surviving fraction in assay [1] (carboplatin co-treatment 0 µM) was 0.0516; in assay [1] (carboplatin co-treatment 5 µM) it was -0.45; in assay [2] (carboplatin co-treatment 0 µM), 0.572; in assay [2] (carboplatin co-treatment 5 µM), 0.189.

For the compound `CCN(CC)C(=O)C1(c2ccccc2)CC1CN` (centres undefined) [Milnacipran HCl], the log2 surviving fraction in assay [1] (carboplatin co-treatment 0 µM) was 0.115; in assay [1] (carboplatin co-treatment 5 µM), 0.296; in assay [2] (carboplatin co-treatment 0 µM), -1.16; in assay [2] (carboplatin co-treatment 5 µM), -0.765.

With `Cc1ncc(CO)c(CO)c1O` [Pyridoxine hydrochloride], the log2 surviving fraction in assay [1] (carboplatin co-treatment 0 µM) was 1.03; in assay [1] (carboplatin co-treatment 5 µM), 0.939; in assay [2] (carboplatin co-treatment 0 µM), -0.0704; in assay [2] (carboplatin co-treatment 5 µM), -0.219.

In the case of `C[C@]12CC[C@@H]3c4ccc(O)cc4CC[C@H]3[C@@H]1CCC2=O` [Estrone], the log2 surviving fraction is -0.629 in assay [1] (carboplatin co-treatment 0 µM), -0.464 in assay [1] (carboplatin co-treatment 5 µM), -0.496 in assay [2] (carboplatin co-treatment 0 µM) and -0.599 in assay [2] (carboplatin co-treatment 5 µM).

In the case of `CC(=O)O[C@]1(C(C)=O)CC[C@H]2[C@@H]3C[C@H](C)C4=CC(=O)C=C[C@]4(C)[C@@]3(F)[C@@H](O)C[C@@]21C` [Fluorometholone Acetate], the log2 surviving fraction stood at 1.51 in assay [1] (carboplatin co-treatment 0 µM), 0.794 in assay [1] (carboplatin co-treatment 5 µM), 2.02 in assay [2] (carboplatin co-treatment 0 µM) and 0.914 in assay [2] (carboplatin co-treatment 5 µM).

`O=C(CCCN1CCN(c2ccccn2)CC1)c1ccc(F)cc1` [Azaperone]: the log2 surviving fraction is 0.715 in assay [1] (carboplatin co-treatment 0 µM), -0.29 in assay [1] (carboplatin co-treatment 5 µM), -0.076 in assay [2] (carboplatin co-treatment 0 µM) and 0.822 in assay [2] (carboplatin co-treatment 5 µM).

As to `CC[C@H]1OC(=O)[C@H](C)[C@@H](O[C@H]2C[C@@](C)(OC)[C@@H](O)[C@H](C)O2)[C@H](C)[C@@H](O[C@@H]2O[C@H](C)C[C@H](N(C)C)[C@H]2O)[C@](C)(OC)C[C@@H](C)C(=O)[C@H](C)[C@@H](O)[C@]1(C)O` [Clarithromycin (Biaxin, Klacid)], the log2 surviving fraction in assay [1] (carboplatin co-treatment 0 µM) was determined as 0.782; in assay [1] (carboplatin co-treatment 5 µM), 0.551; in assay [2] (carboplatin co-treatment 0 µM) it was 0.333; in assay [2] (carboplatin co-treatment 5 µM), 0.332.

For the compound `Nc1ccc(/N=N/c2ccccc2)c(N)n1` [Phenazopyridine HCl], the log2 surviving fraction in assay [1] (carboplatin co-treatment 0 µM) is 0.571; in assay [1] (carboplatin co-treatment 5 µM), 1.23; in assay [2] (carboplatin co-treatment 0 µM), 0.0651; in assay [2] (carboplatin co-treatment 5 µM) it was 0.126.

As for `C[C@@H](O)[C@H]1C(=O)N2C(C(=O)O)=C(S[C@@H]3CN[C@H](C(=O)N(C)C)C3)[C@H](C)[C@H]12` [Meropenem], the log2 surviving fraction in assay [1] (carboplatin co-treatment 0 µM) is 1.79; in assay [1] (carboplatin co-treatment 5 µM) it was 2.18; in assay [2] (carboplatin co-treatment 0 µM), 0.565; in assay [2] (carboplatin co-treatment 5 µM), -0.0569.

In the case of `C#C[C@]1(OC(C)=O)CC[C@H]2[C@@H]3CCC4=C[C@@H](OC(C)=O)CC[C@@H]4[C@H]3CC[C@@]21C` [Ethynodiol diacetate], the log2 surviving fraction is -1.33 in assay [1] (carboplatin co-treatment 0 µM), -0.892 in assay [1] (carboplatin co-treatment 5 µM), -2.17 in assay [2] (carboplatin co-treatment 0 µM) and -2.51 in assay [2] (carboplatin co-treatment 5 µM).

For the compound `Clc1ccc(C(Cn2ccnc2)OCc2ccc(Sc3ccccc3)cc2)c(Cl)c1` (centres undefined) [Fenticonazole nitrate], the log2 surviving fraction in assay [1] (carboplatin co-treatment 0 µM) was -2.75; in assay [1] (carboplatin co-treatment 5 µM) it was -2.7; in assay [2] (carboplatin co-treatment 0 µM) it was -2.53; in assay [2] (carboplatin co-treatment 5 µM) it was -2.47.

With `Cc1cnc(C(=O)NCCc2ccc(S(=O)(=O)NC(=O)NC3CCCCC3)cc2)cn1` [Glipizide (Glucotrol)], the log2 surviving fraction is -9.91 in assay [1] (carboplatin co-treatment 0 µM), -4.11 in assay [1] (carboplatin co-treatment 5 µM), -0.839 in assay [2] (carboplatin co-treatment 0 µM) and 0.245 in assay [2] (carboplatin co-treatment 5 µM).

In the case of `CN(C)CCC=C1c2ccccc2CCc2ccccc21` [Amitriptyline HCl], the log2 surviving fraction was -2.19 in assay [1] (carboplatin co-treatment 0 µM), -1.65 in assay [1] (carboplatin co-treatment 5 µM), -2.48 in assay [2] (carboplatin co-treatment 0 µM) and -0.513 in assay [2] (carboplatin co-treatment 5 µM).

In the case of `CC(=O)SCC(Cc1ccccc1)C(=O)NCC(=O)OCc1ccccc1` (centres undefined) [Racecadotril (Acetorphan)], the log2 surviving fraction in assay [1] (carboplatin co-treatment 0 µM) worked out at 0.0116; in assay [1] (carboplatin co-treatment 5 µM), 0.193; in assay [2] (carboplatin co-treatment 0 µM), 0.339; in assay [2] (carboplatin co-treatment 5 µM), 0.701.

For the compound `CC(C)CCC[C@@H](C)[C@H]1CC[C@H]2[C@@H]3CC=C4C[C@@H](O)CC[C@]4(C)[C@H]3CC[C@]12C` [Cholesterol], the log2 surviving fraction is -0.261 in assay [1] (carboplatin co-treatment 0 µM), -0.00589 in assay [1] (carboplatin co-treatment 5 µM), 0.765 in assay [2] (carboplatin co-treatment 0 µM) and -0.169 in assay [2] (carboplatin co-treatment 5 µM).
